Earlier results, collected in article PMC12418948, “Intranasal Administration of KCNN2 Blocking Peptide Improves Deficits in Cognitive Flexibility in Mouse Model of Fetal Alcohol Spectrum Disorders” (International Journal of Neuropsychopharmacology, 2025).
No end group written: not given here.

Conditions: intrathecal analgesic; cited from earlier work

Ziconotide (CKGKGAKCSRLMYDCCTGSCRSGKC; not fully specified (C-terminus, bridges); cysteine pairing not given here; UniProt P05484 46-70, looked up)
safety as a drug: can safely be used as a drug
